Laboratory results as given in PubChem BioAssay (Tox21).
Where “and” joins values, the source holds several entries; their conditions need not be identical. Identical values can stand only once. The shares of active, inactive and inconclusive entries below differ from those in the screen. Where the call is inconclusive, the potency comes from a doubtful curve fit. More than one record can exist for a structure, and the calls need not agree. Calls of active or inactive are those of the source. Unless noted, calls come from the whole dose curve; as a rule, active = well fitted curve in the direction sought with a large enough effect in the repeat runs; inconclusive = weak or mixed curves; inactive = no such curve, though single readings can be large; an effect the other way counts as inactive or inconclusive.

What was measured:
[1] = A CellTox Green Cytotoxicity Assay to monitor cytotoxicity in HepG2 cells - 16 hour (AID 1224876); note: nearly all actives have a fitted effect of over 45% in size
Method in brief: (§1)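 HepG2 cells were seeded together with the CellTox Green dye at 600 cells/well, left 5 h at 37 C/5% CO2, then given compounds in DMSO. Fluorescence from dye bound to dead-cell DNA was read repeatedly over 40 h of treatment at 37 C.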

[2] = A CellTox Green Cytotoxicity Assay to monitor cytotoxicity in HepG2 cells - 24 hour (AID 1224878); note: nearly all actives have a fitted effect of over 45% in size
Method in brief: as §1

[3] = A CellTox Green Cytotoxicity Assay to monitor cytotoxicity in HEK293 cells - 32 hour (AID 1224881); note: nearly all actives have a fitted effect of over 40% in size
Method in brief: (§2)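 HEK293 cells premixed with CellTox Green dye were seeded at 600 cells/well and left 5 h at 37 C/5% CO2 before pin transfer of 23 nL compound in DMSO. Fluorescence from dye bound to dead-cell DNA was read during 40 h treatment.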

[4] = qHTS RealTime-Glo MT Cell Viability Assay in HEK293 cells - 8 hour (AID 1224887); note: nearly all actives have a fitted effect of over 50% in size
Method in brief: (§3)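 HEK293 cells mixed with RealTime-Glo reagents (NanoLuc plus cell-permeant prosubstrate) at 600 cells/well, preincubated 5 h at 37 C/5% CO2, then given 23 nL compound in DMSO. Nonlytic luminescence from viable cells was read at 0, 8, 16, 24, 32 and 40 h.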

[5] = qHTS RealTime-Glo MT Cell Viability Assay in HepG2 cells - 0 hour (AID 1224889); note: nearly all actives have a fitted effect of over 50% in size
Method in brief: (§4)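 Viability was tracked continuously by NanoLuc luminescence from prosubstrate reduced by living HepG2 cells, at successive time points over 40 h of compound exposure. Cells with reagent were preincubated 5 h at 37 °C before compound addition.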

[6] = qHTS assay to identify small molecule antagonists of the androgen receptor (AR) signaling pathway using the MDA cell line in the presence of 0.5 nM R1881 - cell viability counter screen (AID 1259242); note: nearly all actives have a fitted effect of over 45% in size
Method in brief: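 MDA-kb2 cells (human breast carcinoma, stably carrying MMTV-luciferase reporter) were exposed to compounds with 0.5 nM R1881 (final) for 16 hr at 37C, 0% CO2; viability then read as live-cell protease fluorescence (CellTiter-Fluor, 30 min) in the same wells.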

[7] = A CellTox Green Cytotoxicity Assay to monitor cytotoxicity in HepG2 cells - 40 hour (AID 1224879); note: nearly all actives have a fitted effect of over 40% in size
Method in brief: as §1

[8] = qHTS assay to identify small molecule antagonists of the estrogen receptor alpha (ER-alpha) signaling pathway using the BG1 cell line in the presence of 0.1 nM 17-beta-estradiol - cell viability counter screen (AID 1259241); note: nearly all actives have a fitted effect of over 40% in size
Method in brief: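 Following 5 days in phenol red-free medium with charcoal-stripped serum, VM7Luc4E2 cells received test compounds alongside 0.1 nM 17beta-estradiol (final) at 37C for 22 hr. Live cells were then quantified via protease-substrate fluorescence.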

[9] = A CellTox Green Cytotoxicity Assay to monitor cytotoxicity in HepG2 cells - 32 hour (AID 1224883); note: nearly all actives have a fitted effect of over 50% in size
Method in brief: as §1

[10] = qHTS RealTime-Glo MT Cell Viability Assay in HepG2 cells - 32 hour (AID 1224877); note: nearly all actives have a fitted effect of over 55% in size
Method in brief: as §4

[11] = A CellTox Green Cytotoxicity Assay to monitor cytotoxicity in HEK293 cells - 8 hour (AID 1224884); note: nearly all actives have a fitted effect of over 35% in size
Method in brief: as §2

[12] = qHTS RealTime-Glo MT Cell Viability Assay in HepG2 cells - 16 hour (AID 1224885); note: nearly all actives have a fitted effect of over 50% in size
Method in brief: as §4

[13] = A CellTox Green Cytotoxicity Assay to monitor cytotoxicity in HEK293 cells - 16 hour (AID 1224888); note: nearly all actives have a fitted effect of over 35% in size
Method in brief: as §2

[14] = A CellTox Green Cytotoxicity Assay to monitor cytotoxicity in HepG2 cells - 8 hour (AID 1224890); note: nearly all actives have a fitted effect of over 45% in size
Method in brief: as §1

[15] = qHTS RealTime-Glo MT Cell Viability Assay in HEK293 cells - 0 hour (AID 1224880); note: nearly all actives have a fitted effect of over 45% in size
Method in brief: as §3

[16] = qHTS RealTime-Glo MT Cell Viability Assay in HEK293 cells - 24 hour (AID 1224886); note: nearly all actives have a fitted effect of over 50% in size
Method in brief: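 Viability tracked continuously by luminescence as live cells reduce a prosubstrate for NanoLuc; HEK293 cells preincubated 5 h, compound-treated at 37 C, and read at 0, 8, 16, 24, 32 and 40 h.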

[17] = qHTS assay to identify small molecule phospholipidosis (PLD) inducers (AID 1259344; active = well fitted curve in the direction sought with a large enough effect; inconclusive = small, poorly fitted or top-dose-only effect, or another doubt; inactive = no such curve, though single readings can be large; an effect the other way counts as inactive or inconclusive)
Method in brief: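 Phospholipidosis is scored by imaging LipidTOX-stained pits in HepG2 cells exposed to compound for 24 h at 37 C; pit counts and integrated intensities per well and per cell serve as outputs.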

[18] = A CellTox Green Cytotoxicity Assay to monitor cytotoxicity in HepG2 cells - 0 hour (AID 1224882); note: nearly all actives have a fitted effect of over 35% in size
Method in brief: as §1
Potency is the fitted concentration of half-maximal effect; tags give direction and shape of the fitted curve.

CC1=C2C[C@H]3[C@@H](CC=C4C[C@@H](O)CC[C@@]43C)[C@@H]2CC[C@]12O[C@@H]1C[C@H](C)CN[C@H]1[C@H]2C
Potency [1]: inconclusive: 26.8 µM [activator, single point]
Potency [2]: inconclusive: 26.8 µM [activator, single point]
Potency [3]: inconclusive: 26.8 µM [activator, single point]
Potency [4]: inconclusive: 23.9 µM [cytotoxic, partial curve]
Potency [5]: inconclusive: 19 µM [cytotoxic, partial curve]
Potency [6]: inconclusive: 23.7 µM [cytotoxic]

O=C(O)CC(Cl)C(=O)O (stereo unspecified)
Potency [1]: inconclusive: 62.3 µM [activator, single point]
Potency [2]: inconclusive: 55.6 µM [activator, single point]
Potency [7]: inconclusive: 62.3 µM [activator, single point]
Potency [8]: inconclusive: 24.6 µM [cytotoxic, partial curve, poor fit]

Nc1ccc(Cl)cc1C(=O)c1ccccc1F
Potency [1]: inconclusive: 30.1 µM [activator, single point]
Potency [7]: inconclusive: 26.8 µM [activator, single point]
Potency [9]: inconclusive: 26.8 µM [activator, single point]

CCCCC(O)(Cn1cncn1)c1ccc(Cl)cc1Cl (stereo unspecified)
Potency [1]: inconclusive: 43.6 µM [activator, single point]
Potency [10]: inconclusive: 48.9 µM [cytotoxic, partial curve]
Potency [9]: active: 48.9 µM
Potency [11]: inconclusive: 54.9 µM [activator, single point]
Potency [12]: inconclusive: 48.9 µM [cytotoxic, partial curve]
Potency [13]: inconclusive: 54.9 µM [activator, single point]
Potency [14]: inconclusive: 48.9 µM [activator, single point]
Potency [8]: inconclusive: 68.5 µM [cytotoxic, partial curve, poor fit]

O=S(=O)(O)OOS(=O)(=O)O
Potency [1]: inconclusive: 55.5 µM [activator, single point]
Potency [2]: inconclusive: 55.5 µM [activator, single point]
Potency [7]: inconclusive: 55.5 µM [activator, partial curve, poor fit]
Potency [14]: inconclusive: 55.5 µM [activator, single point]

O=P(O)(O)CCCl
Potency [1]: inactive
Potency [7]: inconclusive: 24.4 µM [activator, single point]
Potency [3]: inconclusive: 55.9 µM [activator, single point]
Potency [11]: inconclusive: 55.9 µM [activator, single point]
Potency [13]: inconclusive: 55.9 µM [activator, single point]

O=C(O)COc1cc(Cl)c(Cl)cc1Cl
Potency [1]: inactive

CCOP(=S)(OCC)Oc1ncn(-c2ccccc2)n1
Potency [1]: inactive
Potency [7]: inactive

c1ccc2sc(SNC3CCCCC3)nc2c1
Potency [1]: inactive and inconclusive: 9.77 µM [activator, partial curve, poor fit]
Potency [2]: inconclusive: 9.77 µM [activator, partial curve, poor fit]
Potency [7]: inconclusive: 9.77 µM [activator, partial curve, poor fit]
Potency [9]: inconclusive: 9.77 µM [activator, partial curve, poor fit]
Potency [5]: inactive

Cc1cc(C)c(C(=O)P(=O)(c2ccccc2)c2ccccc2)c(C)c1
Potency [1]: inconclusive: 19.5 µM [activator, single point]
Potency [2]: inconclusive: 15.5 µM [activator, partial curve]
Potency [7]: inconclusive: 13.8 µM [activator, partial curve]
Potency [15]: inconclusive: 38.9 µM [falling, partial curve]
Potency [3]: inconclusive: 24.5 µM [activator, full curve, poor fit]
Potency [9]: inconclusive: 15.5 µM [activator, partial curve]
Potency [12]: inconclusive: 49 µM [cytotoxic, single point]
Potency [16]: active: 38.9 µM

C[C@]12CCC(=O)C=C1CC[C@@H]1[C@@H]2CC[C@]2(C)C(=O)CC[C@@H]12
Potency [1]: inactive
Potency [2]: inconclusive: 54.9 µM [activator, single point]
Potency [3]: inconclusive: 48.2 µM [activator, single point]
Potency [9]: inconclusive: 49 µM [activator, single point]
Potency [16]: inconclusive: 24.5 µM [cytotoxic, partial curve]
Potency [17]: inconclusive: 14.1 µM [activator, partial curve, poor fit]

c1cc2c3c(cccc3c1)CC2
Potency [1]: inconclusive: 54.9 µM [activator, partial curve, poor fit]
Potency [2]: inconclusive: 49 µM [activator, single point]
Potency [7]: inconclusive: 54.9 µM [activator, single point]
Potency [9]: inconclusive: 54.9 µM [activator, single point]
Potency [11]: active: 49 µM
Potency [12]: inactive
Potency [4]: inactive
Potency [14]: inconclusive: 43.6 µM [activator, partial curve, poor fit]

COP(=O)(OC)OC
Potency [1]: inconclusive: 39.2 µM [activator, partial curve]
Potency [2]: inconclusive: 34.9 µM [activator, partial curve]
Potency [7]: active: 19.7 µM
Potency [15]: inconclusive: 0.871 µM [falling, single point]
Potency [3]: inconclusive: 55.4 µM [activator, single point] and inactive
Potency [18]: inconclusive: 39.2 µM [activator, partial curve]
Potency [4]: inactive
Potency [13]: inconclusive: 49.4 µM [activator, single point]
Potency [14]: inconclusive: 49.4 µM [activator, single point]

O=S(=O)(O)C(F)(F)C(F)(F)C(F)(F)C(F)(F)F
Potency [18]: inconclusive: 51.9 µM [activator, single point]

O=C(O)C(F)(F)C(F)(F)C(F)(F)C(F)(F)C(F)(F)C(F)(F)C(F)(F)C(F)(F)C(F)(F)C(F)(F)F
Potency [18]: inconclusive: 20.7 µM [activator, single point]

CCCN(CCOc1c(Cl)cc(Cl)cc1Cl)C(=O)n1ccnc1
Potency [10]: inconclusive: 49 µM [cytotoxic, partial curve, poor fit]
Potency [7]: inconclusive: 44.6 µM [activator, partial curve]
Potency [12]: inconclusive: 43.6 µM [cytotoxic, partial curve]
Potency [4]: active: 44.6 µM and active: 27.5 µM
Potency [5]: inconclusive: 56.1 µM [cytotoxic, single point] and inconclusive: 27.5 µM [cytotoxic, partial curve]
Potency [8]: inactive

Clc1ccc(CSC(Cn2ccnc2)c2ccc(Cl)cc2Cl)cc1 (stereo unspecified)
Potency [10]: inconclusive: 23.9 µM [cytotoxic, partial curve]
Potency [2]: inactive
Potency [12]: inconclusive: 23.9 µM [cytotoxic, single point]
Potency [4]: inconclusive: 9.52 µM [cytotoxic, full curve]
Potency [6]: inconclusive: 33.5 µM [cytotoxic, single point]
Potency [17]: inactive

COc1ccc(Cc2nccc3cc(OC)c(OC)cc23)cc1OC
Potency [10]: inconclusive: 21.3 µM [cytotoxic, partial curve]
Potency [7]: inconclusive: 23.9 µM [activator, partial curve, poor fit]
Potency [15]: inconclusive: 26.8 µM [falling, single point]
Potency [12]: inconclusive: 19 µM [cytotoxic, partial curve]
Potency [16]: active: 4.77 µM
Potency [6]: inconclusive: 23.7 µM [cytotoxic, partial curve]
Potency [17]: inactive

O=C1C(=O)c2cccc3cccc1c23
Potency [10]: inconclusive: 15.5 µM [cytotoxic, full curve]
Potency [15]: inconclusive: 1.74 µM [rising, partial curve, poor fit]
Potency [16]: inconclusive: 13.8 µM [rising, full curve]
Potency [4]: inconclusive: 8.7 µM [rising, full curve]

CC1COC(Cn2cncn2)(c2ccc(Oc3ccc(Cl)cc3)cc2Cl)O1 (stereo unspecified)
Potency [10]: inconclusive: 49 µM [cytotoxic, partial curve]
Potency [7]: inconclusive: 54.9 µM [activator, single point]
Potency [9]: inconclusive: 49 µM [activator, single point]
Potency [12]: inconclusive: 43.6 µM [cytotoxic, partial curve]
Potency [16]: active: 19.5 µM
Potency [6]: inconclusive: 30.6 µM [cytotoxic, full curve]

CCCC[n+]1ccc(C)cc1
Potency [10]: inconclusive: 54.7 µM [cytotoxic, single point]
Potency [3]: inconclusive: 43.8 µM [activator, partial curve, poor fit]
Potency [12]: inconclusive: 43.4 µM [cytotoxic, partial curve]
Potency [16]: inconclusive: 49.7 µM [rising, partial curve]
Potency [4]: inconclusive: 49.7 µM [rising, single point]
Potency [13]: inconclusive: 43.8 µM [activator, partial curve, poor fit]
Potency [14]: inconclusive: 61.3 µM [activator, single point]
Potency [6]: inconclusive: 68.2 µM [cytotoxic, single point]

Cc1cc(Cl)ccc1N=CN(C)C
Potency [10]: inconclusive: 21.9 µM [cytotoxic, single point]
Potency [7]: inconclusive: 21.9 µM [activator, single point]
Potency [9]: inconclusive: 21.9 µM [activator, single point]
